# Laboratory results published in the supplement of paper PMC11417369.
# ± gives the standard deviation of the averaged measurements. Some of the results follow.
# Test system: PfAP2-EXP AP2 domain (GST-tagged)
# Assay: gcPBM binding intensity (ln(normalized median fluorescence intensity)); higher = stronger DNA binding
# Outline: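 GST-fused DNA-binding domains of P. falciparum, expressed in E. coli, were applied at about 25 μg on average for 1 h to an Agilent 4 × 180k array of primer-extended double-stranded 36-bp intergenic genomic probes and negative controls. Binding intensity is the highest Masliner-normalised natural-log median intensity across replicate spots of either probe orientation, measured with Alexa488 anti-GST antibody and a 488 nm scan.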
row,Sequence,gcPBM binding intensity (ln)
1,ATGAATGTCCCAAGATGTACAATTATATATAACACA [XGTACX_site4702],8.54 ± 0.41
2,TTTTAAGATATAAATTAATACTTATATATATAGATA [CACACA_negctrl_site22],8.14 ± 0.67
3,TAATAAATAAGACACACACACATATATATATATTAT [CACACA_site1389],8.74 ± 0.33
4,ATATTAATATAATGTGCATGTTCAATGATCTTTTTA [TGCATGCA_site22],8.62 ± 0.35
5,TTATACAACAAGAAAATTATAAAATGTAACATATAT [GTGCAC_negctrl_site406],8.53 ± 0.42
6,ATAATTATTAATATAGTGCATTGGCATAATAATATA [GTGCAC_site9810],8.71 ± 0.11
7,TTAGATATAATATATACACACCAACGAACGAAGAAA [CACACA_site4763],9.12 ± 0.54
8,TATTTTTTAACACAACGTACATATAAAAAATATTTA [XGTACX_site6025],8.48 ± 0.37
9,TACAAATATATATGCACACACATATATGTATATGTG [CACACA_site3075],8.65 ± 0.26
10,AGTAAATAACACAAATATGAATGAAAAAAAAAATAT [GTGCAC_negctrl_site235],8.9 ± 0.36
11,CGTATGAGTAAATACACACCCACGTATATATATAAA [CACACA_site5728],8.38 ± 0.38
12,ATATATATATAGTACGCACACATAGTTGTACATTAA [CACACA_site2787],9.8 ± 0.34
13,TGTGCGGAAATAAGTGCACACATAGATATCTGTATT [CACACA_site5935],9.13 ± 0.19
14,CAACTTATTAAAAGTCGTACAAATGGGAAGAAGGAA [XGTACX_site6325],8.79 ± 0.36
15,TGACGACATTTCTTATGTACTAATTTTTCTTCCTTT [XGTACX_site4391],8.54 ± 0.47
16,TAAAAAAAGAAAAAAAGTACATGCTACTTTTATGAT [XGTACX_site7818],8.54 ± 0.42
17,CAAAATGATATGACAACACACAACCTATAGTAAGAC [CACACA_site1287],8.98 ± 0.6
18,TAATATATAATAAAGTGTACATATGCTTTATTATTA [XGTACX_site1920],8.6 ± 0.38
19,AATAAAAATAACCTAACATGCAAAAAAAAAAAAAAA [TGCATGCA_site718],8.26 ± 0.49

row,Sequence,gcPBM binding intensity (ln)
1,TGAATGCTTTTATGCACACGTACAAAAATATTATAT [CACACA_site2668],8.62 ± 0.12
2,GTCATTAAAAAAATATGTACTTAAATGTATGCATAT [XGTACX_site5951],8.43 ± 0.31
3,TGTGGTTTTTATAATTGTACATATATATAAATCTAT [XGTACX_site4766],8.73 ± 0.41
4,ATATAAAATAAATAAGTGCAGATAAATTTATGTGAC [GTGCAC_site9504],9.04 ± 0.32
5,TGTTGTTATAAAAAAAAAAAAAAAAAAAAAAAAAAA [GTGCAC_negctrl_site230],8.1 ± 0.28
6,TATATATTATATATATGTACTTATTTATTAATTTAT [XGTACX_site5253],8.29 ± 0.25
7,GGAATATAAATACATACACACATATATATATATATA [CACACA_site4998],10.1 ± 0.38
8,TATAATAAATCAAATGCACACACACTAATAAAAAAA [CACACA_site7937],8.85 ± 0.35
9,TACATGCTTATTTTAACACACAAATGGTAGTAATAA [CACACA_site766],8.37 ± 0.26
10,ATGAATATTTACAATCTTATTATGTTCAAAATTAAT [CACACA_negctrl_site592],8.25 ± 0.33
11,ATAAAATACAAAGGGACACACATATGAGTCTACAAA [CACACA_site3092],8.59 ± 0.57
12,TATATAATATAATGTAGTACATGTTTTATTTTTTAC [XGTACX_site7735],8.45 ± 0.42
13,ATTTATTTATTTTCATGTACATATGTAAATCAATAA [XGTACX_site3886],8.46 ± 0.38
14,TCACAAATGTATTATACACACAAGTTTTCTTTAATA [CACACA_site4107],8.39 ± 0.41
15,ATATTAACTTTTATTACACACTCTCAACTTTTATTT [CACACA_site6176],8.63 ± 0.21
16,AAGTTATACACATCAACACACACATACAACGTGGTG [CACACA_site8312],8.52 ± 0.45
17,TAAACACATTATATATGTACATAATAAAAAAAAAAA [XGTACX_site7907],8.6 ± 0.32
18,TTTTTTTTTTTTTTTTTTTTTTTCTACCTATTTATT [CACACA_negctrl_site94],7.94 ± 0.47
19,TTGTATAAAATATGTAGTACAATAATATAACATTTT [XGTACX_site8607],8.55 ± 0.2

row,Sequence,gcPBM binding intensity (ln)
1,TATGTATATTGAGATTGTACTTGTAATATTAAACAT [XGTACX_site3878],8.42 ± 0.41
2,AATAATAAAAATATTGTGCACTTGTATATTTATTAT [GTGCAC_site9963],8.82 ± 0.16
3,AAGGAATAAAATTTAGAAGACAATTTTATTTCAGTA [XGTACX_negctrl_site331],8.25 ± 0.59
4,ATATCAAATAATTTAGTGCACTTTTTTTTTTCTTTT [GTGCAC_site9629],9.16 ± 0.3
5,GGTATTTTCACATATAGTACACAAAAATAAAATAAA [XGTACX_site2139],8.75 ± 0.16
6,CTAATCATAAAATATACACACACGGATACATTAAAT [CACACA_site2685],8.81 ± 0.56
7,ATTTCTCTATCGTAATGTACAAAAAAAAGGGAAAAG [XGTACX_site1335],8.77 ± 0.52
8,ATTGAAGGGAAATATATAATCATATTCAAAATAAAA [CACACA_negctrl_site728],8.43 ± 0.39
9,TTTATACTTTCAAAATGTACATATATATATATATAT [XGTACX_site6241],10.2 ± 0.24
10,TAATATATAATTTTATGTACATAATTATAAACCCAT [XGTACX_site919],8.6 ± 0.28
11,AAAAAATACCAAAGGGGTACTTACACATAATACTTA [XGTACX_site2111],8.29 ± 0.36
12,CATCAAAATGAAGCATGTACATAATATAAATAAATA [XGTACX_site4647],8.88 ± 0.45
13,CTTTTTACTTAATACACACACACACCCAAAAAAAAA [CACACA_site948],8.74 ± 0.43
14,CATATATATATATGAACACACAAAAAGAATATTTCC [CACACA_site1493],8.74 ± 0.33
15,GTAGAAAGAAAAATTAGTACTTAAATATTATAAAAA [XGTACX_site8458],8.39 ± 0.42
16,AATTATATTTAGTATATGCACACTTTATGTTTGTTA [CACACA_site2025],8.66 ± 0.28
17,TTCTATGCATTTATAGTGCATGTAAAATATAAGATA [GTGCAC_site9466],8.825 ± 0.035
18,TCTATACCTATTCTTACACACATATGTATTTATATA [CACACA_site4475],8.99 ± 0.39
